The RNAGym collection of RNA variant scans (doi:10.1093/nar/gkz1192)
Read counts are not given, so values of variants with three or more changes are uncertain.

B1: CPEB3 Ribozyme (parent)
chain: UAACAGGGGGCCACAGCAGAAGCGUUCACGUCGCAGCCCCUGUCAGAUUCUGGUGAAUCUGCGAAUUCUGCUGUAUAUCUC

Variants of: B1
Assay: self-cleavage, relative activity (ratio to wild type); higher = more cleavage; in vitro, sequencing
Method in brief: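 Libraries of CPEB3 self-cleaving ribozyme mutants came from rounds of error-prone PCR and carried barcodes, which DNA sequencing matched to variants. In vitro transcription used T7 RNA polymerase at 37°C for 5 hours, with a further 15 min in DNase I before EDTA stopped the reaction; the ribozymes cleaved during both steps. The RNA was reverse transcribed with template switching and sequenced on Illumina. Relative activity is the cleaved/total read fraction of a variant divided by that of the unmutated ribozyme, averaged over three batches with at least 5 reads.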

Variant	self-cleavage
G19A A56G U60A U69C	0.4
G19A C27G U41A U43A	0.23
G19A C32U U54C A65G U80A	0.08
G19A C34U U60A U80C	0.05
G19A G30U C79U	0.17
G19A G33A U54A	0.08
G19A G33A U54C G70A U80C	0.08
G19A U25C A47G A64G	0.29
G19A U25C U41C U51C	0.04
G19A U25C U41C U72C	0.22
G19A U25C U54C A64U U74C	0.06
G19A U25G U43C A57U U67C U80C	0.06
G19A U26A A35G U41C U78C	0.29
G19A U26C G36C G52A A57G U67C U80C	0.06
G19A U26C U31C A35G	0.14
G19A U26C U41A U60A	0.07
G19A U31A U58C U72C	0.08
G19A U31C A64G U74G A75G	0.12
G19A U41C C62U A65G U69C	0.29
G19A U41C U48C U51C U60C U76A	0.15
G19A U41C U51C U67A	0.17

Variant	self-cleavage
G19A U41C U54A U60C	0.17
G19A U41C U58C U69C U78C	0.08
G19A U41C U69C	0.08
G19A U43A U54C	0.25
G19A U43C U54C G55U U67A	0.1
G19A U51C A57G A65C U69C C79G	0.09
G19A U51C U54C	0.13
G19A U54C U66C	0.09
G19A U54C U72A	0.09
G19A U58C A64G U74A	0.05
G19A U67C U72A	0.11
G19C A20G A35C A45C U54A	0.17
G19C A20G U51C U72C U76C	0.13
G19C A20U U26A G46A U66A C79A	0.19
G19C A21G A57G A75U	0.31
G19C A21G U43G U48C U72A A75G	0.3
G19C A21G U72A	0.14
G19C A28G U41C A45G	0.16
G19C A28U G52A	0.23
G19C A35U U41C A77G	0.21
G19C A57C U67C	0.11

Variant	self-cleavage
G19C C29U U41A G46A A47G U54C	0.18
G19C C32G U78C	0.06
G19C C32U U48C U58C U72C A75U	0.08
G19C C34A A45U U54G A56G U78A	0.1
G19C C37U U41A	0.09
G19C C38U A56G	0.17
G19C C44A U72C U80C	0.07
G19C G30U U49A	0.11
G19C G33U U41A	0.19
G19C G36A A45G U48C U67C U78C	0.1
G19C G42A U58C U67C	0.08
G19C G42U U43C U58G U80C	0.07
G19C U25A U26C A45U	0.17
G19C U25C A35G A45G A57G A65G	0.06
G19C U25C A35G A57G U58A	0.21
G19C U25C A35G U43A A57G	0.06
G19C U25C A45U U60C A65C	0.16
G19C U26A U69G	0.09
G19C U31C U60C	0.04
G19C U41C U60C U66A A77C	0.11
G19C U43C U58G U80C	0.06

Variant	self-cleavage
G19C U48C U51C	0.15
G19C U51C C62U A64U	0.16
G19C U54A A57C U67C	0.06
G19C U67C U80C	0.21
G19U A20G G55A U66C	0.04
G19U A20G U43G U48G U60C U67A	0.09
G19U A21C A56G U74G A75U U78C	0.07
G19U A21G U43C G55A A57G U58A	0.15
G19U A28U A35G U43C U78A	0.07
G19U A28U U60A	0.1
G19U A35C A75U	0.23
G19U A35U A45G G46A A64G	0.14
G19U A35U A47G	0.2
G19U A35U A64G	0.15
G19U A35U G46A U54C C71G	0.06
G19U A35U U48C U76A	0.17
G19U A45G U54C U66C	0.19
G19U A45U G46A C50U U51A U60C	0.14
G19U A56U A64G	0.15
G19U A57G U60A U67C	0.07
